Results: the supplement of paper PMC4466236
In all, about 33,000 sequences were measured (“E-score (dimensionless, -0.5 to 0.5)”: median about -0.058, highest 2% from about 0.35 on). This is one part of the list.

system: MvaT; experiment: PBM 8-mer E-score (mean of HK and ME arrays) (E-score (dimensionless, -0.5 to 0.5)); higher = stronger relative binding preference; most listed sequences are background and not binding sites
Procedure, shortened: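 Full-length P. aeruginosa MvaT, with glutathione S-transferase fused to its N-terminus (cloned into pTH6838 by isothermal assembly), was tested by protein binding microarray using a previously described protocol. Two universal double-stranded 60-mer arrays (ME and HK) were used, each with a constant 25-mer primer region and a variable 35-mer region covering all 8-mers. The rank-based 8-mer E-score (-0.5 to 0.5) is the mean of the two arrays, parsed with a custom Python script.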

| Sequence | PBM 8-mer E-score |
| --- | --- |
| AACCGACG | -0.000494 |
| CCCCAATA | 0.0237 |
| GAGTTGGC | -0.063 |
| CCGGAAGA | -0.2 |
| AGTAAGGC | -0.102 |
| ACCACGCA | -0.162 |
| CATACGCC | -0.119 |
| AGTGACTC | -0.215 |
| AGTTCTAA | 0.195 |
| AGGACGTG | -0.0594 |
| GTTCTCGA | -0.0824 |
| AATTAATT | 0.469 |
| CTAGTGTC | -0.0643 |
| CTGGATAA | 0.125 |
| ACTTATGA | 0.248 |
| GCTTTTTA | 0.202 |
| ACGTGAGA | -0.0259 |
| AAAGGTCC | -0.197 |
| ACCTTGGA | -0.184 |
| AGAGAGTG | -0.0094 |
| GTTCGATA | 0.111 |
| TAAGTCGA | 0.0582 |

| Sequence | PBM 8-mer E-score |
| --- | --- |
| ATCCGGGC | -0.207 |
| AATCCCCG | -0.164 |
| AGGCCCCC | -0.324 |
| ACACCTGG | -0.191 |
| CGATGGGA | -0.232 |
| CCAGGGAA | -0.264 |
| GTGTCACA | 0.0862 |
| TGGGTTAA | 0.271 |
| ACGTTACC | 0.0225 |
| GGTCAATA | 0.0589 |
| ATGGTTCG | -0.129 |
| GAAGGTCC | -0.296 |
| CACTGTGG | -0.229 |
| GCACATCA | -0.0667 |
| TAGACTAA | 0.172 |
| AGGAGATG | -0.137 |
| GCAGCAGC | -0.158 |
| ACGTACAG | -0.0779 |
| ACGACGCG | 0.00215 |
| GTTCCAGA | -0.0607 |
| ATTCAATC | 0.128 |
| CGTTGATA | 0.233 |

| Sequence | PBM 8-mer E-score |
| --- | --- |
| GGGCCAAA | -0.175 |
| AACACGCG | -0.00712 |
| AGCGTAAA | 0.129 |
| ATGCTAAA | 0.062 |
| CAAAAATC | 0.0508 |
| CCACAGCA | 0.0585 |
| ACCGCAAT | 0.0257 |
| CATCTTGC | 0.00473 |
| GGAGCACA | -0.109 |
| AGCGCTCC | -0.312 |
| ATGGTGTA | 0.227 |
| GGTGCGTA | -0.221 |
| AAAATTTG | 0.221 |
| CATATGCC | 0.21 |
| GCGGATCA | -0.185 |
| TCTCACCA | -0.0395 |
| AGATAACT | 0.173 |
| ATTTGCCA | 0.182 |
| CGACAGGC | -0.265 |
| ACGGGTAG | -0.17 |
| ACCTCCAG | -0.269 |
| GTAATTCA | 0.191 |

| Sequence | PBM 8-mer E-score |
| --- | --- |
| GCCATGAC | -0.228 |
| AAAAGCGT | 0.0434 |
| AAGCTATC | -0.0888 |
| ATGTACGA | 0.0878 |
| CAGGAACG | -0.0449 |
| ATCAGTGC | 0.0617 |
| CTGAGAGA | -0.152 |
| ATGAAGTG | 0.0372 |
| GTAACCGA | 0.0603 |
| GGGTAAAC | -0.045 |
| GAACAGTA | 0.15 |
| ACCAGGGT | -0.286 |
| CAGAATGG | -0.147 |
| ACCTTGAG | -0.171 |
| CCGGCCCC | -0.331 |
| GTTATACA | 0.281 |
| GTGAATCA | -0.0866 |
| AACTGTAC | 0.096 |
| AAATGTGT | 0.227 |
| AGACGTCT | 0.112 |
